From the supplement of paper PMC3334620
Over roughly 33,000 sequences, “E-score (-0.5 to 0.5)” has its median near -0.016; the highest 2% begin near 0.31. This is one part of the list.

Biological target: Cst6 (UniProt P40535)
Assay: PBM E-score (8-mer binding enrichment) (E-score (-0.5 to 0.5)); higher = stronger / more preferred TF binding; most listed sequences are background and not binding sites
Conditions: protein concentration: 200 nM; construct: GST-DNA-binding domain
Description: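 Universal 'all 10-mer' protein binding microarrays (Agilent AMADID 015681) probed with GST-tagged S. cerevisiae TFs (full-length or DBD) made by in vitro transcription/translation (PURExpress), about 100-200 nM. Bound TF was detected with fluorescent anti-GST. Each ungapped 8-mer (which stands for itself and its reverse complement) is scored by the PBM enrichment score (E-score), a modified Wilcoxon-Mann-Whitney statistic from -0.5 to +0.5, computed with the Universal PBM Analysis Suite. Scale: above 0.35 generally sequence-specific binding.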

Sequence	PBM E-score
AGAGGTCG	-0.12
AGCTTTTC	-0.00677
CTTGTAAC	0.147
AGGTTACG	0.0832
CTCGAGTA	-0.0335
TCCTGCGA	-0.0512
ATGCTTTA	0.0449
GGCGCGCA	0.0653
CGGAGGTA	-0.282
CTCCTCAG	-0.231
GTCATCGA	0.348
TCCGTCGA	-0.0429
TCGAAACA	0.181
CTTCCAGC	-0.0967
CTATAAGA	-0.0156
GCCCTTAC	-0.228
ACCACCAG	-0.0729
CAGGGGCC	-0.187
ACTCGAGA	-0.0827
GCGGGCAC	-0.0755
ACCTGGGA	-0.137
CAGTTTAA	0.0613
CTTTTGGC	0.0121
AATGCAAC	0.19
ATACTTAA	0.118

Sequence	PBM E-score
TAATTCGA	0.0188
CTGACATC	0.307
ATTTCAGC	0.00693
CCGCAGTA	-0.0737
ACATTAGT	-0.0516
GTAAGCAA	0.0453
TACGAGGA	-0.141
AATACTTA	0.032
CGCATCTA	0.145
CATGTCCC	-0.15
AAATTATG	0.164
ACCCGCTA	-0.249
AGAAGTAA	0.216
ATTCTGTA	0.0162
CGACACCC	-0.126
AAGTGGTC	-0.0188
CTGCCATC	-0.0826
GAGGTACC	-0.281
AATCAGTG	0.0564
AATGATGC	0.347
AGCAAAAC	0.032
AGTTTGGG	0.0894
AGCGGATC	-0.0207
CGGATTGA	0.0224
AACGTGAC	0.274

Sequence	PBM E-score
CGGTAGAA	-0.204
ATTGACGG	0.121
CCGTTAAG	0.0867
GATCAGCC	-0.212
TGCAATAA	0.167
ATAGTATC	0.218
AATGGACC	0.0576
AGCAAGTA	0.0438
ACCTGATG	-0.00795
AAAACGCA	0.0107
ACATTTGC	0.0837
ACAGAATG	0.105
ACAACCCG	-0.045
GGCCGCTA	-0.232
AATTCGGG	-0.0904
AAAGCCAG	-0.141
CTGAGGAA	-0.183
CTGCTATC	-0.00541
GGTCTTGA	-0.0828
AGGGTTAA	-0.168
ACACTACT	0.0264
CGAATCCC	-0.158
AAATTCAA	0.201
CATCCTAA	0.0973
TGACTTAA	0.266

Sequence	PBM E-score
ACACAAGC	-0.0117
ATACCCAT	-0.0474
CTTTGTAC	-0.103
AACACGTG	0.136
ACTGCCAG	-0.118
GGTCTTAA	-0.198
CTAGGCCA	-0.233
TCTTGAAA	0.195
CATGACAA	0.14
GAGAATAC	0.144
CCGCATGA	0.189
CCCCGTCC	-0.437
AAGCCGCG	0.1
CAGCCAGG	-0.147
ACGCCATA	0.232
CCTCTAGC	-0.078
ACCGTAGA	-0.00945
AACCACCG	-0.0655
ACGCGGAA	0.167
CTATCGAA	0.0969
GTACTTCA	0.27
AGCACTCA	-0.118
GACATTTA	0.115
CATCATCA	0.409
AAGGGCGG	-0.153

Sequence	PBM E-score
CGTACACG	0.118
CATGCAAA	0.142
CATCTCAG	-0.00804
ACGACACC	0.036
CAGCTGCG	-0.169
CACCATAG	-0.0555
CATAACAC	0.121
CCAACCTA	-0.103
GGCCAAAA	0.191
AGATGCGG	0.103
GACTTGGA	-0.251
CGACGAAA	0.12
CGGTCTGC	-0.138
AATTCCAT	0.148
ATTGTCCC	-0.167
GATAACCC	-0.286
ACCCGGTG	-0.0713
CAAATGGC	0.0947
ACGATGAA	0.154
CGTTGGAC	-0.122
AAAGAAGA	-0.0462
ACGGTGGC	-0.0174
CCGGTATC	-0.257
AACGCAGG	-0.251
GACACGTC	0.202

Sequence	PBM E-score
CTTCAAGA	0.0345
GATATTAA	0.201
AGCGAGCG	-0.0518
GATCTTAC	0.0127
GCTGAAGC	-0.00722
CTCTCTTC	-0.239
AAGCTCAA	-0.049
AACTTTAG	0.217
AATACACG	0.0759
CGAGGCGA	0.0832
AGCCCTCC	-0.323
AGGCGGAC	-0.288
CGACATGC	0.118
AGTTACGA	0.209
ATGTATAG	0.0703
CACCGGCA	-0.178
CTGCGTCA	0.428
AGTTCGTC	0.125
ATTGCCTA	-0.141
CGCGTCCC	-0.158
ACTGGGCT	-0.336
AGTAATTG	0.166
GTTAAGGA	0.0778
CTTGCCTA	-0.0716
AGACTGAC	0.0529

Sequence	PBM E-score
GCACGCGC	0.0129
ACGAGATC	0.00599
AGGCTTCG	-0.164
ACGCTCCG	-0.119
GATCTTAA	0.0924
ACCCGATC	-0.0348
AAGTGCAG	-0.149
CACCTAGG	-0.333
CTAGCATC	-0.102
ACAACTGT	-0.0486
CGGGACGC	-0.201
AAGAGCTC	-0.237
AAGAGGGT	-0.156
AGTCAATC	0.0291
AGTGCCTA	-0.00266
ACTGCGAG	-0.12
AATTTGGG	0.051
ATCCCAAT	0.0876
AGAGCGCA	-0.349
AACTCGAC	-0.0524
CTTTCGGA	-0.108
GAGCATTA	-0.0547
AGGAACGC	-0.189
ACGTGCAC	0.198
GCCTGAGC	-0.0175

Sequence	PBM E-score
ACTACGGG	-0.254
GTGGCAAA	-0.0838
ATGGGGGG	-0.299
CTCTCTAA	-0.138
ATCTCCTA	-0.191
CTGAGCCC	-0.301
ACTACACC	-0.0106
AGGTCTCC	-0.237
CAATAGAA	-0.051
AATTCTTG	0.185
AGTCGCAC	-0.19
AGTGAGTG	-0.00041
CGATTCCC	-0.121
AGCCGCCC	-0.116
CTATACTC	-0.236
CTCGCGGC	0.0818
CGTGTAGC	-0.187
CCGAACAG	-0.0529
ACTCTAAC	-0.0916
GATGAATC	0.0177
ACAAAATA	0.206
CTTGAACC	-0.0465
AATATATT	0.355
TCACAGAA	0.133
GACAGCCA	-0.186

Sequence	PBM E-score
CCATAAAA	0.123
ACAATATG	0.179
ACATCACC	0.417
AACGCCTG	-0.0407
CACTTACG	0.351
GCCAGTGA	0.0519
CGCTGAAC	-0.0202
AACGACGC	-0.094
ATCCCTTC	-0.062
ACTCTCCA	-0.101
CGCCCAAA	-0.0345
CAACCCGC	-0.0646
GCGCGCGC	0.345
GGCCCTAC	-0.408
GACCCCTC	-0.314
GACCACAC	-0.126
CCTGAAAG	0.0136
AGGCAACG	-0.0115
GATTGGTA	-0.0377
